MIC of invasive clinical C. tropicalis isolates, CLSI broth microdilution (fluconazole 0.12-256 mg/L, up to 1,024 for the azole-resistant cluster and its neighbour group; other ranges not stated); higher = less susceptible. Call: susceptible or wild type [S] / resistant or non-wild type [R] by CLSI breakpoints or cut-offs; intermediate and dose-dependent carry no call. '<=' and '>=' at the end values are inferred; the source marks only some of them. Isolates are numbered anew.
Columns and labels:
Assay in all cases: CLSI broth microdilution.
itraconazole = compound: CCC(C)n1ncn(-c2ccc(N3CCN(c4ccc(OCC5COC(Cn6cncn6)(c6ccc(Cl)cc6Cl)O5)cc4)CC3)cc2)c1=O [itraconazole]
micafungin = compound: CCCCCOc1ccc(-c2cc(-c3ccc(C(=O)N[C@H]4C[C@@H](O)[C@@H](O)NC(=O)[C@@H]5[C@@H](O)[C@@H](C)CN5C(=O)[C@H]([C@H](O)CC(N)=O)NC(=O)[C@H]([C@H](O)[C@@H](O)c5ccc(O)c(OS(=O)(=O)O)c5)NC(=O)[C@@H]5C[C@@H](O)CN5C(=O)[C@H]([C@@H](C)O)NC4=O)cc3)no2)cc1 [micafungin]
anidulafungin = compound: CCCCCOc1ccc(-c2ccc(-c3ccc(C(=O)N[C@H]4C[C@@H](O)[C@@H](O)NC(=O)[C@@H]5[C@@H](O)[C@@H](C)CN5C(=O)[C@H]([C@@H](C)O)NC(=O)[C@H]([C@H](O)[C@@H](O)c5ccc(O)cc5)NC(=O)[C@@H]5C[C@@H](O)CN5C(=O)[C@H]([C@@H](C)O)NC4=O)cc3)cc2)cc1 [anidulafungin]
posaconazole = compound: CC[C@@H]([C@H](C)O)n1ncn(-c2ccc(N3CCN(c4ccc(OC[C@@H]5CO[C@@](Cn6cncn6)(c6ccc(F)cc6F)C5)cc4)CC3)cc2)c1=O [posaconazole]
caspofungin = compound: CC[C@H](C)C[C@H](C)CCCCCCCCC(=O)N[C@H]1C[C@@H](O)[C@@H](NCCN)NC(=O)[C@@H]2[C@@H](O)CCN2C(=O)[C@H]([C@H](O)CCN)NC(=O)[C@H]([C@H](O)[C@@H](O)c2ccc(O)cc2)NC(=O)[C@@H]2C[C@@H](O)CN2C(=O)[C@H]([C@@H](C)O)NC1=O [caspofungin]
voriconazole = compound: C[C@@H](c1ncncc1F)[C@](O)(Cn1cncn1)c1ccc(F)cc1F [voriconazole]
amphotericin B = compound: C[C@@H]1[C@H](O)[C@@H](C)/C=C/C=C/C=C/C=C/C=C/C=C/C=C/[C@H](O[C@@H]2O[C@H](C)[C@@H](O)[C@H](N)[C@@H]2O)C[C@@H]2O[C@](O)(C[C@@H](O)C[C@@H](O)[C@H](O)CC[C@@H](O)C[C@@H](O)CC(=O)O[C@H]1C)C[C@H](O)[C@H]2C(=O)O [amphotericin B]
flucytosine = compound: Nc1[nH]c(=O)ncc1F [flucytosine]
fluconazole = compound: OC(Cn1cncn1)(Cn1cncn1)c1ccc(F)cc1F [fluconazole]

Test System | MIC (itraconazole) | MIC (micafungin) | MIC (anidulafungin) | MIC (posaconazole) | MIC (caspofungin) | MIC (voriconazole) | MIC (amphotericin B) | MIC (flucytosine) | MIC (fluconazole)
Candida tropicalis isolate 368 (ERG11 copies: 8, Erg11p: Y132F, S154F (heterozygous)) | 1 mg/L [R] | 0.06 mg/L [S] | 0.12 mg/L [S] | 1 mg/L [R] | 0.03 mg/L [S] | ≥ 8 mg/L [R] | 0.5 mg/L [S] | ≤ 0.06 mg/L [S] | 512 mg/L [R]
Candida tropicalis isolate 369 (ERG11 copies: 2, Erg11p: no key change) | 0.25 mg/L [S] | 0.03 mg/L [S] | 0.06 mg/L [S] | 0.25 mg/L [S] | 0.03 mg/L [S] | 0.12 mg/L [S] | 1 mg/L [S] | ≤ 0.06 mg/L [S] | 2 mg/L [S]
Candida tropicalis isolate 370 (ERG11 copies: 2, Erg11p: no key change) | 0.12 mg/L [S] | 0.03 mg/L [S] | 0.06 mg/L [S] | 0.12 mg/L [S] | 0.03 mg/L [S] | 0.06 mg/L [S] | 0.5 mg/L [S] | ≤ 0.06 mg/L [S] | 1 mg/L [S]
Candida tropicalis isolate 371 (ERG11 copies: 2, Erg11p: no key change) | 0.12 mg/L [S] | 0.03 mg/L [S] | 0.12 mg/L [S] | 0.12 mg/L [S] | 0.03 mg/L [S] | 0.12 mg/L [S] | 0.5 mg/L [S] | ≤ 0.06 mg/L [S] | 1 mg/L [S]
Candida tropicalis isolate 372 (ERG11 copies: 2, Erg11p: no key change) | 0.06 mg/L [S] | 0.03 mg/L [S] | 0.12 mg/L [S] | 0.03 mg/L [S] | 0.06 mg/L [S] | 0.03 mg/L [S] | 0.25 mg/L [S] | 0.12 mg/L [S] | 0.5 mg/L [S]
Candida tropicalis isolate 373 (ERG11 copies: 2, Erg11p: no key change) | 0.12 mg/L [S] | 0.03 mg/L [S] | 0.06 mg/L [S] | 0.12 mg/L [S] | 0.03 mg/L [S] | 0.06 mg/L [S] | 0.5 mg/L [S] | ≤ 0.06 mg/L [S] | 1 mg/L [S]
Candida tropicalis isolate 374 (ERG11 copies: 2, Erg11p: no key change) | 0.12 mg/L [S] | 0.03 mg/L [S] | 0.25 mg/L [S] | 0.12 mg/L [S] | 0.03 mg/L [S] | 0.12 mg/L [S] | 1 mg/L [S] | ≤ 0.06 mg/L [S] | 2 mg/L [S]
Candida tropicalis isolate 375 (ERG11 copies: 2, Erg11p: no key change) | 0.06 mg/L [S] | 0.03 mg/L [S] | 0.03 mg/L [S] | 0.06 mg/L [S] | 0.03 mg/L [S] | 0.03 mg/L [S] | 0.5 mg/L [S] | ≤ 0.06 mg/L [S] | 1 mg/L [S]
Candida tropicalis isolate 376 (ERG11 copies: 2, Erg11p: no key change) | 0.5 mg/L [S] | 0.06 mg/L [S] | 0.12 mg/L [S] | 0.5 mg/L [R] | 0.06 mg/L [S] | 0.12 mg/L [S] | 0.5 mg/L [S] | 0.12 mg/L [S] | 2 mg/L [S]
Candida tropicalis isolate 377 (ERG11 copies: 8, Erg11p: Y132F, S154F (heterozygous)) | 0.25 mg/L [S] | 0.03 mg/L [S] | 0.03 mg/L [S] | 0.5 mg/L [R] | 0.015 mg/L [S] | > 8 mg/L [R] | 1 mg/L [S] | ≤ 0.06 mg/L [S] | 512 mg/L [R]
Candida tropicalis isolate 378 (ERG11 copies: 8, Erg11p: Y132F, S154F (heterozygous)) | 0.5 mg/L [S] | 0.06 mg/L [S] | 0.12 mg/L [S] | 0.5 mg/L [R] | 0.25 mg/L [S] | ≥ 8 mg/L [R] | 0.5 mg/L [S] | ≤ 0.06 mg/L [S] | 512 mg/L [R]
Candida tropicalis isolate 379 (ERG11 copies: 2, Erg11p: no key change) | 0.5 mg/L [S] | 0.015 mg/L [S] | ≤ 0.015 mg/L [S] | 0.5 mg/L [R] | 0.015 mg/L [S] | 0.25 µg/mL | 1 mg/L [S] | ≤ 0.06 mg/L [S] | 2 mg/L [S]
Candida tropicalis isolate 380 (ERG11 copies: 7, Erg11p: Y132F, S154F (heterozygous)) | 1 mg/L [R] | 0.03 mg/L [S] | 0.03 mg/L [S] | 1 mg/L [R] | 0.03 mg/L [S] | ≥ 8 mg/L [R] | 1 mg/L [S] | ≤ 0.06 mg/L [S] | 512 mg/L [R]
Candida tropicalis isolate 381 (ERG11 copies: 7, Erg11p: Y132F, S154F (heterozygous)) | 1 mg/L [R] | 0.06 mg/L [S] | 0.12 mg/L [S] | 1 mg/L [R] | 0.06 mg/L [S] | ≥ 8 mg/L [R] | 1 mg/L [S] | ≤ 0.06 mg/L [S] | 256 mg/L [R]
Candida tropicalis isolate 382 (ERG11 copies: 2, Erg11p: no key change) | 0.25 mg/L [S] | 0.03 mg/L [S] | ≤ 0.015 mg/L [S] | 0.25 mg/L [S] | 0.03 mg/L [S] | 0.12 mg/L [S] | 0.5 mg/L [S] | ≤ 0.06 mg/L [S] | 2 mg/L [S]
Candida tropicalis isolate 383 (ERG11 copies: 2, Erg11p: no key change) | 0.12 mg/L [S] | 0.06 mg/L [S] | 0.25 mg/L [S] | 0.12 mg/L [S] | 0.03 mg/L [S] | 0.06 mg/L [S] | 0.5 mg/L [S] | 0.12 mg/L [S] | 1 mg/L [S]
Candida tropicalis isolate 384 (ERG11 copies: 2, Erg11p: no key change) | 0.25 mg/L [S] | 0.03 mg/L [S] | 0.06 mg/L [S] | 0.25 mg/L [S] | 0.03 mg/L [S] | 0.12 mg/L [S] | 1 mg/L [S] | 0.12 mg/L [S] | 2 mg/L [S]
Candida tropicalis isolate 385 (ERG11 copies: 2, Erg11p: no key change) | 0.5 mg/L [S] | 0.06 mg/L [S] | 0.12 mg/L [S] | 0.5 mg/L [R] | 0.06 mg/L [S] | 1 mg/L [R] | 1 mg/L [S] | 0.12 mg/L [S] | 16 mg/L [R]

From the supplement of paper PMC10724272
